# From the supplement of paper PMC11417369
# ± gives the standard deviation of the averaged measurements. The list shows a part of the results.
# Tested on: PfAP2-LT AP2 domain (GST-tagged)
# Test: gcPBM binding intensity (ln(normalized median fluorescence intensity)); higher = stronger DNA binding
# Procedure, shortened: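 Probes on an Agilent 4 × 180k array were primer-extended, double-stranded and 36 bp long, taken from intergenic genomic regions, with negative controls added. GST-tagged P. falciparum DNA-binding domains from E. coli, about 25 μg on average, were applied to the array for 1 h in 1× PBS containing 1% milk, 0.2 mg/ml BSA, 0.5% salmon testes DNA and 0.03% Triton X-100. Binding intensity, obtained after Alexa488 anti-GST antibody detection and a 488 nm scan, is the highest Masliner-normalised natural-log median intensity across replicate spots of either probe orientation.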
row,Sequence,gcPBM binding intensity (ln)
1,TGGTATTAAGGAGAGGGTACAAAAAAAAAAAAAAAA [XGTACX_site1668],8.42 ± 0.47
2,AAAAAAAAAAAAAAAAAAAAATATATATATATATAT [GTGCAC_negctrl_site426],9.67 ± 0.085
3,AAAAGTATAATAAATTGTACTAACAAATATTTATGT [XGTACX_site7721],8.7 ± 0.46
4,TAAAATTTTGTTTGTTGTACTTATTTTCGTGTCAAC [XGTACX_site8277],8.73 ± 0.49
5,AAAGATGAATTTTTTACACACACCATTTTATAATAT [CACACA_site3676],9.07 ± 0.25
6,AATGTAAAACCTCCTACACACACCAATTAACTATTC [CACACA_site2112],9.55 ± 0.2
7,TACTTATCGTTAAATTGTACTAAAAAATATTTTTCT [XGTACX_site4665],8.53 ± 0.52
8,AAAAAAAACGGACACACACACATACAAAATATATAT [CACACA_site4910],9.99 ± 0.28
9,AGGGAATATTTTTATGCATGTGCTTACACATTACAA [TGCATGCA_site830],8.84 ± 0.39
10,TTCTAATATTTACATAATATATAGAAATATAAAGGT [XGTACX_negctrl_site504],8.76 ± 0.3
11,AAATATAAACTCAGCACACAAACATATATATGTCAT [CACACA_site4004],9.15 ± 0.4
12,TTTTTTTTTTTTTCTCGTACAAAATAATACCTTTTT [XGTACX_site3867],8.53 ± 0.45
13,ATGGTATAAAAAAATACACACTTATATATATTCTTA [CACACA_site4427],8.68 ± 0.46
14,GTAGACATTATAATGGTGCAAAAAAATTAACAAAAA [GTGCAC_site9891],8.98 ± 0.64
15,AAGTATGCGTTATATACACACATACATTTATATATC [CACACA_site6207],9.04 ± 0.32
16,TCAGAGTGAAGTTATACACACATGGTTTTTTTTTTT [CACACA_site2116],8.87 ± 0.49
17,AGAGAGAAAGCTATAACATGCAACAATTTTTAGAAA [TGCATGCA_site95],8.78 ± 0.59
18,AGGAGGATATTACACAGTACCCAGTAACTCTACGGA [XGTACX_site1998],8.82 ± 0.51
19,GTAATATATTTTTATGGTACACGAACTAGCCAAAAA [XGTACX_site6307],8.75 ± 0.38
20,TAATATATTTATAAGTGTACACATTATATAAATCCC [XGTACX_site8875],8.73 ± 0.33
21,CCGCATTTTACAGACACACACAATTTATATTACGGT [CACACA_site6974],9.26 ± 0.33
22,AGTAATAACTATATATGTACATATATATATTATTAG [XGTACX_site1113],8.79 ± 0.4

row,Sequence,gcPBM binding intensity (ln)
1,TTTTTTTTTTTAAATACATGCATGTCCTATTTAAAT [TGCATGCA_site494],8.9 ± 0.61
2,TTTTTTTGATAAAAGGTGCTACAAGATGAATACATA,8.38 ± 0.42
3,GTTGTATAAAATAATACATGCATGTCCTACATATAT [TGCATGCA_site162],9.35 ± 0.45
4,ATAAATAAAAAAAAAAAAAAAAAAAAAAAAAAAATA [CACACA_negctrl_site1064],8.46 ± 0.61
5,ATAATATAAATAATTATACACACTTAATATATATAT [CACACA_site2782],8.76 ± 0.45
6,GTATGTATGTATGTATGTACGTATTTATTTATTTAA [XGTACX_site726],9.05 ± 0.32
7,AAGAAAAATAATTAGGGTGAAAATATATAGAGTAAA [TGCATGCA_negctrl_site590],8.7 ± 0.54
8,ACACATATATATATATATATATATATATATATATAT [CACACA_negctrl_site1766],9.935 ± 0.035
9,CAATTCTTAAGTTCTTGTACGAAAAACGACAATTTA [XGTACX_site3890],8.38 ± 0.44
10,TATTATATAAAATATTTTATTATATCATCTTCTCTA [XGTACX_negctrl_site319],8.43 ± 0.59
11,GGTAATAATATGCATAGTACATAATATATATATATA [XGTACX_site6793],9.14 ± 0.38
12,ATCATATTTTTATGTGTGCACTTTTTTTTTTTTTTT [GTGCAC_site9555],9.27 ± 0.35
13,CTCTTATACATATTCCTGCACTTATTTTTAAAAACA [GTGCAC_site9620],8.73 ± 0.39
14,AAAAATGGTGTTAACACACACATATAAATAAATATA [CACACA_site6412],9 ± 0.35
15,TAAATGTGAAATTTTATATTTTATATAATATACAAT [CACACA_negctrl_site76],8.35 ± 0.38
16,AAGGATCACCCACAAACACACATATATATATATATA [CACACA_site559],10.2 ± 0.28
17,AACATAAGTAATATTTGTACATATATAATAATATAT [XGTACX_site5123],8.76 ± 0.44
18,AACATGCAAACATGCACACAGAAAAAAAAAATATAT [CACACA_site1565],9.36 ± 0.44
19,TTACACATACATATGTGGGAAAATATTGCTACATAT [CACACA_negctrl_site463],8.94 ± 0.39
20,AAGAAAAGCATAGATGCACACATATATATATATATA [CACACA_site8675],10.2 ± 0.32
21,GGAACTTAAAAAAAATGTACTTATAAAAAAGGAAAT [XGTACX_site8186],8.63 ± 0.44
